Measurements: the supplement of paper PMC3334620
In all, about 33,000 sequences were measured (“E-score (-0.5 to 0.5)”: median about -0.054, highest 2% from about 0.35 on). This is one part of the list.

What follows are sequences tested against T1, Stb5 (UniProt P38699) (assay: PBM E-score (8-mer binding enrichment) (E-score (-0.5 to 0.5)); higher = stronger / more preferred TF binding; most listed sequences are background and not binding sites). Conditions: protein concentration: 200 nM; construct: GST-full length.
T1 sequence: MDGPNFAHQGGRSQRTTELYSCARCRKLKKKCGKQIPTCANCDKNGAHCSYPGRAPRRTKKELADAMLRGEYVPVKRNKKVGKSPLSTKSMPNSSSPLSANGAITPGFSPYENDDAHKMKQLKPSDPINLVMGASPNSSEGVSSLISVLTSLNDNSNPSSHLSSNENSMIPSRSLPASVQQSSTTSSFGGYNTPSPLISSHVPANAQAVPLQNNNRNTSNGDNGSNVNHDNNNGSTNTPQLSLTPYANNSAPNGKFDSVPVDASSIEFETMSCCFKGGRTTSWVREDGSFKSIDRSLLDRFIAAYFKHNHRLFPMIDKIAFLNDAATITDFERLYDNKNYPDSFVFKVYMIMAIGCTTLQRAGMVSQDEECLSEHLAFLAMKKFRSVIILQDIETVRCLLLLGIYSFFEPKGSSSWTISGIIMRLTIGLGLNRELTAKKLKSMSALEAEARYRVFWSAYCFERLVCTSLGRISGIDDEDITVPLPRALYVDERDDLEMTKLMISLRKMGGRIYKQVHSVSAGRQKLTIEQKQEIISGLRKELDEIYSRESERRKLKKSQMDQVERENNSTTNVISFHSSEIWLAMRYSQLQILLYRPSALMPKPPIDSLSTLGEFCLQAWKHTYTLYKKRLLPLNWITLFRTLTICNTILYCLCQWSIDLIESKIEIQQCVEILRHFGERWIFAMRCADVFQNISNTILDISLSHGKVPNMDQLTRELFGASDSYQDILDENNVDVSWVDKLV
How it was run: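 E-scores (a modified Wilcoxon-Mann-Whitney statistic) were assigned by the Universal PBM Analysis Suite to every ungapped eight-base word pooled with its reverse complement. The input came from universal all-10-mer Agilent arrays made double-stranded by primer extension and probed with GST-tagged yeast transcription factors at about 100-200 nM. Fluorescent anti-GST detected bound protein, and masliner normalised the scans.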

| Sequence | PBM E-score |
| --- | --- |
| GGCGAATA | 0.15 |
| GGAGTCAA | 0.039 |
| AGATTGTC | 0.0766 |
| TATGTCGA | -0.142 |
| CTCGTTAC | -0.274 |
| CTCTGCGA | -0.185 |
| AAATACGT | -0.0651 |
| CTTGTCTA | -0.11 |
| AACGAACG | -0.0159 |
| AAGGCTCC | -0.0559 |
| CCGACCCC | 0.247 |
| AGATCCCA | -0.136 |
| AGACGCTC | -0.162 |
| CTATCACC | 0.216 |
| CTTCTTGA | -0.201 |
| CTTTACAA | -0.00901 |
| CAAAAATG | -0.116 |
| CCTGACGC | -0.0414 |
| AAAGGTTG | -0.192 |
| AGGACAGG | -0.0724 |
| CTATTTGA | -0.00364 |
| AACTAGGA | -0.00297 |
| CCCACCCA | 0.115 |
| TAATGTCA | -0.0133 |
| GAAGATAC | -0.0172 |

| Sequence | PBM E-score |
| --- | --- |
| AGTATTAT | -0.33 |
| AACTATGG | -0.0418 |
| GCTAGGCC | 0.102 |
| AGAACTTC | -0.167 |
| GCAGGCGA | -0.252 |
| GACAGGTC | -0.0535 |
| TAAATAAA | 0.0938 |
| CAGCGTTA | -0.0407 |
| ACTAAGTA | -0.00117 |
| AGGTATGC | -0.0441 |
| AAGGGCGC | 0.0221 |
| CCGGCCAC | 0.3 |
| CATCTACC | 0.111 |
| ATAGTGCG | 0.0882 |
| AACACGGA | 0.258 |
| ACAGTAAC | 0.0245 |
| GGCACGCA | -0.00378 |
| CCCCTAGC | -0.119 |
| CACTGCTA | -0.187 |
| ACGCGGGG | 0.348 |
| CGTCCGAG | 0.147 |
| AACTAGTG | -0.167 |
| AGACCTAG | -0.251 |
| AGTCGGGG | 0.363 |
| CAATCCTA | -0.147 |

| Sequence | PBM E-score |
| --- | --- |
| GGCTGACC | -0.309 |
| ATAGGCGA | -0.188 |
| CGTTAGTA | -0.0512 |
| GATAACCA | -0.013 |
| AACAATCG | -0.0578 |
| CGGTCTAC | 0.0908 |
| TCGGAGAA | 0.293 |
| ACTGGGGC | -0.203 |
| CGACGAGC | -0.013 |
| CCTTAAGC | -0.0951 |
| AGGACATG | -0.118 |
| TCGAGCAA | -0.0922 |
| GCCCAGGC | -0.122 |
| ACTGCAAT | -0.0526 |
| ACCACTGG | -0.0889 |
| CGCCGAAG | 0.244 |
| CGACCACA | -0.112 |
| AGCAGCAG | -0.0757 |
| GACGCGCC | -0.0077 |
| ACTCGCGA | -0.151 |
| ACAACGAA | 0.0504 |
| ACAATTCC | -0.113 |
| ATCGTTTA | -0.0656 |
| AGCTGGAG | -0.251 |
| ATGCGCCC | 0.237 |

| Sequence | PBM E-score |
| --- | --- |
| ATGAAGGG | -0.104 |
| GACAGTAA | 0.00946 |
| TGAATAAA | -0.0649 |
| CGTTGGGA | 0.0257 |
| CTACGGAG | 0.322 |
| GCCAGACC | -0.047 |
| CGGGATAG | 0.095 |
| CAAGCTAC | -0.217 |
| AGGGCTTG | -0.288 |
| CAATGAAC | -0.124 |
| ACACCACG | -0.0664 |
| ACCATGAG | -0.0914 |
| CTATCGTA | -0.0849 |
| AGATCCTC | -0.216 |
| CAATTTTC | -0.0207 |
| AGGGGGCA | -0.361 |
| ATCTGTTA | -0.241 |
| CGATCCCA | -0.206 |
| AAGAAACT | -0.159 |
| AACATAAT | 0.0164 |
| ATTATGGC | -0.0217 |
| GTGGTATA | -0.0221 |
| CAAAATGA | -0.0462 |
| CCCCCTGA | -0.368 |
| ACGAGCAA | -0.156 |

| Sequence | PBM E-score |
| --- | --- |
| CCTTATCC | 0.00435 |
| CATCGAAA | -0.136 |
| ACTCGATA | -0.0816 |
| AATGTCGG | 0.329 |
| AATACGCG | -0.00472 |
| CCCCTATA | -0.0319 |
| TATCATCA | -0.0117 |
| GAATCAGC | -0.094 |
| CCAAAGCG | 0.129 |
| ATATTGGG | -0.0282 |
| AGTTAACT | 0.111 |
| CATGTCAA | -0.311 |
| AATGACCC | 0.0742 |
| ATCTCAAC | -0.0536 |
| CCCTATTA | -0.137 |
| ACAGGGTG | -0.166 |
| AGAGCGCG | 0.0352 |
| CAGGCCAA | -0.145 |
| CACCAATC | -0.0305 |
| ACGAGTCT | -0.319 |
| CTGGCAGA | -0.192 |
| CTACGTCA | -0.099 |
| CACGTTAG | -0.179 |
| GGCGTTAA | 0.327 |
| ACAGCGGT | 0.304 |

| Sequence | PBM E-score |
| --- | --- |
| GTCAACTA | -0.174 |
| ATCACGGA | 0.217 |
| ACAGAGCC | -0.166 |
| CCGTGTCG | 0.201 |
| GAGGAGAC | -0.0683 |
| AGTGTTCA | -0.0169 |
| CTGTGCCC | -0.0978 |
| ACCCGTCC | -0.0174 |
| GAAACCAA | -0.0238 |
| ACGTGCTG | -0.167 |
| AAGCGCGC | 0.159 |
| ATAGGGCC | 0.133 |
| TCCTAGAA | -0.0339 |
| CCGAGTTC | 0.0441 |
| TCCGGGCA | 0.179 |
| CGATACGC | 0.109 |
| CCTCGATC | -0.191 |
| CCACGGTA | 0.27 |
| ACGCGCTG | -0.0586 |
| TGGGGGAA | -0.176 |
| AATGGGGA | -0.165 |
| GTCACCAA | -0.108 |
| GACACAAC | -0.0253 |
| GCATATGA | -0.039 |
| AAACAGTA | -0.118 |

| Sequence | PBM E-score |
| --- | --- |
| CGAGCCTA | -0.0743 |
| AAGAGTTA | -0.0879 |
| AATGGGCG | -0.0438 |
| CCTTTAGC | -0.0445 |
| CATACCGC | 0.307 |
| AGCTCGTG | -0.0786 |
| GCCTCCAC | -0.032 |
| CTGCACGA | -0.0921 |
| AAACGTTT | 0.0205 |
| ACCGATCC | 0.282 |
| AGCTCTCC | -0.325 |
| TACAACCA | -0.0508 |
| CTTTTATA | 0.0541 |
| ACGAATCC | -0.0664 |
| CCTTACAG | -0.109 |
| CCGCAGTC | 0.188 |
| ACGGACGA | 0.137 |
| TTGATCAA | -0.16 |
| GTTGCGGA | 0.121 |
| CAGTAACA | -0.0341 |
| CCAAGCCC | 0.0337 |
| AGCATCTG | -0.148 |
